Results reported in PubChem BioAssay AID652104 (National Center for Advancing Translational Sciences (NCATS), 2013).
Values joined by “and” are separate entries in the source; they are usually repeats but may differ in a detail not shown here. Identical values can stand only once. Hit rate of the full screen: of about 410,000 compounds, about 7,200 (1.8%) were called active. This list was built around the results that the source calls inconclusive (neither active nor inactive); the mix of calls is not that of the screen. The call rests on the fitted dose curve; in most records, active means well fitted activation curve with a large enough effect; inconclusive means small, poorly fitted or top-dose-only effect, or another doubt; inactive means no such curve, though single readings can be large or run the other way. Where the call is inconclusive, the potency comes from a doubtful curve fit. A structure can be active in one record and inactive in another.

Test: qHTS of TDP-43 Inhibitors; further: nearly all actives have a fitted effect of over 50% in size; on growth rescue (activation): % of control where 0% means no effect
Conditions: TDP-43 expressing yeast growth rescue, BacTiter-Glo, 24 h; growth rescue (activation): at 46.1 µM (top of the series) unless noted
Text: The goal of this project is to identify new chemical probes capable of reversing the toxicity associated with TDP-43 which is associated with frontotemporal lobar degeneration and amyotrophic lateral sclerosis. These compounds will provide a complementary approach to deciphering the tangled mechanisms of toxicity and protection that we have uncovered through genome-wide genetic screens and are beginning to uncover in a large-scale proteomics analysis with mass spectroscopy.
To this end, a miniaturized assay was developed to be screened against the Molecular Libraries Small Molecule Repository (MLSMR) to discover TDP-43 inhibitors. Please note that in the set-up this yeast-based assay compounds that inhibit as TDP-43, have a read-out as activators.
NIH Chemical Genomics Center [NCGC]
NIH Molecular Libraries Probe Centers Network [MLPCN]
Assay Submitter (PI): Susan Lindquist, Whitehead Institute/MIT
Dispense 2.5 microL yeast galactose medium per 1536-well plate, pin compound, dispense 2.5 microL TDP-43 expressing yeast in galactose medium at OD600=0.02 (pregrown in raffinose medium to mid-log phase) per well, incubate for 24 hr at 30 deg C, and cell growth will be measured using 5 microL of Bactiter/Glo reagent to entire plate and read using Luminescence Protocol in ViewLux.
Potency means the concentration at half of the fitted maximal effect; tags describe the fitted curve by direction and shape.

Potency, inactive and 25.1 µM (active):
CCc1ccc(Nc2nc(N)nc(CSc3nc4ccccc4s3)n2)cc1

Potency, inconclusive:
CCOc1ccccc1NS(=O)(=O)c1ccc(-c2cnc(C3CC3)o2)cc1 14.1 µM [activator, partial curve] and 15.8 µM [activator, partial curve]
Cc1ccc(-n2ncc3c2CCCC3NC(=O)c2csnn2)cc1C (stereo not given) 17.8 µM [activator, single point]
Cc1cc(C)nc(NN=CC2=C(N3CCOCC3)/C(=C/c3ccc(Cl)cc3)CC2)n1 15.8 µM [activator, single point]
COC(=O)c1c(C(=O)OC)c2ccccn2c1C(=O)c1ccc([N+](=O)[O-])cc1 8.91 µM [activator, partial curve]
Cc1cc(SCC(=O)NCCC2=CCCCC2)nc2ccccc12 12.6 µM [activator, single point]
Cc1ccc(N=CC2=C(O)CC(C)(C)CC2=O)nc1 7.08 µM [activator, full curve, poor fit]
O=C(NCc1ccc2c(c1)CCN2C(=O)c1ccc(Cl)cc1)c1cccc(F)c1 0.316 µM [activator, full curve, poor fit]
Cc1ccc(NC(=O)CCS(=O)(=O)c2cc3c4c(c2)CCN4C(=O)CC3)c(C)c1 8.91 µM [activator, full curve, poor fit]
CCOC(=O)c1ccc(N/C(=N\S(=O)(=O)c2ccc(F)cc2F)c2ccccc2)cc1 35.5 µM [activator, single point]
Cc1nn(-c2ccccc2)c2sc(C(=O)Nc3ccccc3Br)cc12 3.55 µM [activator, full curve, poor fit]
CCOC(=O)c1ccc2c(c1)nc(SCc1cn3ccsc3n1)n2CC 20 µM [activator, single point]
CCc1ccc(CN(C(=O)c2oc3ccccc3c2C)C2CCS(=O)(=O)C2)cc1 (stereo not given) 31.6 µM [activator, single point]
Nc1ncnc(NCc2ccc(F)cc2)c1[N+](=O)[O-] 1 µM [activator, full curve, poor fit]
Cc1ccc(CS(=O)(=O)c2ncc(Cl)c(C(=O)Nc3nc4ccc(F)cc4s3)n2)cc1 0.501 µM [activator, full curve, poor fit]
CCOc1cc(C2Nc3cccc4cccc(c34)N2)ccc1O 0.501 µM [activator, partial curve, poor fit]
C=C(C)CSC1=C(C#N)C(c2ccccc2Cl)CC(=O)N1 (stereo not given) 12.6 µM [activator, single point]
CC(C)(C)c1ccc(-c2c(C#N)c(N)nc3c2CCCC3)s1 8.91 µM [activator, partial curve]
CCOc1cc(CNc2ccc3c(c2)OCCO3)cc(Br)c1OCC 11.2 µM [activator, partial curve]
Cc1onc(-c2c(F)cccc2Cl)c1C(=O)N1CCc2ccccc21 35.5 µM [activator, single point]
Cc1cccc(N=Nc2c(O)[nH]c3ccc(F)cc23)c1 0.501 µM [activator, full curve, poor fit]
COc1nc(Nc2ccc(O)cc2)nc(OC(C(F)(F)F)C(F)(F)F)n1 20 µM [activator, single point]
O=c1c2ccccc2nnn1Cc1ccc(F)cc1 35.5 µM [activator, partial curve, poor fit]
O=C(c1cc2c(=O)n3ccccc3nc2s1)N1CCN(c2cccc(Cl)c2)CC1 31.6 µM [activator, single point]
CCOC(=O)CNC(=S)N(Cc1cccs1)C1CCCC1 10 µM [activator, partial curve]
C[C@@H](CO)NC(=O)c1[nH]cnc1C(=O)Nc1ccc(CNC(=O)OC(C)(C)C)cc1 0.316 µM [activator, full curve, poor fit]
Nc1c(Cl)ncnc1N/N=C/c1ccc2ccccc2n1 35.5 µM [activator, single point]
C=CCSc1nnc(-c2ccc([N+](=O)[O-])cc2)o1 12.6 µM [activator, partial curve]
COc1ccccc1CC(=O)Nc1cccc2ccccc12 6.31 µM [activator, single point]
c1ccc(-c2csc(N3CCOCC3)n2)cc1 15.8 µM [activator, single point]
COC(=O)c1sc(S(=O)(=O)Nc2ccc(Br)cc2)c(C(=O)OC)c1C 35.5 µM [activator, single point]
CCCc1cc(C(=O)Nc2ccc(Cl)cn2)cs1 15.8 µM [activator, single point]
CC1(C(=O)NCc2cccs2)Cc2c(-c3ccc4c(c3)OCO4)ccnc2O1 (stereo not given) 15.8 µM [activator, single point]
COc1ccc(C(=O)N/N=C/c2ccc(OC)c(COc3ccc(F)cc3)c2)cc1 15.8 µM [activator, single point]
O=C(c1c(F)cccc1F)N1CCN=C1SCc1ccccc1 11.2 µM [activator, partial curve]
CCCCCCCCSc1nnc(CSc2nc3nc(C)cc(C)n3n2)o1 35.5 µM [activator, partial curve]
Cc1cccc(-n2ncc3c(NC4CCCC4)ncnc32)c1 3.16 µM [activator, partial curve]
Cc1cc(C)[n+]2n1C(=O)C(c1ccccc1)=C2[O-] 35.5 µM [activator, single point] and 11.2 µM [activator, partial curve]
Cc1ccsc1C(=O)N1CCC1(C)C(=O)Nc1ccc2c(c1)OCCO2 (stereo not given) 35.5 µM [activator, single point]
O=C(NCc1cccc(F)c1)c1cccc(NC(=O)c2nsc3ccccc23)c1 11.2 µM [activator, partial curve, poor fit]

Potency, inactive:
Cc1ccc(S(=O)(=O)Nc2ccc3c(c2)C(=O)N([C@@H](C)CO)C[C@@H](C)[C@@H](CN(C)C(=O)NC2CCCCC2)OCCCC[C@H](C)O3)cc1
Cc1ccc(-c2csc(=Nc3ccc(F)cc3)n2Cc2ccc3c(c2)OCO3)cc1C
Cc1cc(-c2ccccc2)n[nH]1
CC(=O)Nc1ccccc1
CCc1noc(-c2ccc(N3CCCCC3C)c([N+](=O)[O-])c2)n1 (stereo not given)
Cc1ccc(NC(=O)CN2C(=O)C3(SCC(=O)N3c3cccc(Cl)c3)c3ccccc32)cc1C (stereo not given)
COc1ccc(/C=C/c2ccncc2)cc1
CCCCCCCC1=NN(c2ccc(S(=O)(=O)O)cc2)C(=O)C1N=O (stereo not given)
COC(=O)c1ccc(C(=O)OC)c(NC(=O)COC(=O)C2CCC(C(C)(C)C)CC2)c1 (stereo not given)
CCCCN(C)C(=O)C1CCC(CNS(=O)(=O)c2ccc(Cl)cc2)CC1 (stereo not given)
CCC(Oc1ccccc1)C(=O)Nc1cc(-c2ccccc2OC)nn1-c1ccccc1 (stereo not given)
COc1ccc(-c2cc(C(F)(F)F)nc(SCC(=O)Nc3cc(C)on3)n2)cc1
Cc1cc2c(c(=O)o1)C(C(C)C)C(C#N)=C(N)O2 (stereo not given)
Nc1ccccc1C(=O)NCc1ccccc1
COc1ccc(OC)c(CCNC(=O)c2cnn(-c3ccccc3)c2C2CCN(C(=O)OC(C)(C)C)CC2)c1
CCC(C(=O)Nc1cc(-c2nc3cccnc3s2)ccc1C)c1ccccc1 (stereo not given)
COc1cccc(CNC(=O)C2CCN(c3nnc(-n4c(C)ccc4C)s3)CC2)c1

Potency, active:
Cc1cc(C)nc(-n2ncc3c2CC(c2ccc(C(C)C)cc2)CC3=O)n1 (stereo not given) 28.2 µM
O=C1c2ccccc2S(=O)(=O)c2cc(C(=O)N3CCN(c4ccc(Cl)cn4)CC3)ccc21 20 µM
Cc1ccc(CSc2nc3ccsc3c(=O)n2Cc2ccccn2)cc1 35.5 µM
O=C(/C=C/c1ccccc1)CC(O)(c1ccccc1)C(F)(F)F (stereo not given) 12.6 µM
O=C1[C@@H]2C(c3ccccc3Cl)=NO[C@@H]2C(=O)N1Cc1ccccc1 14.1 µM
COc1ccccc1NC(=O)CSc1ncn(-c2ccccc2)n1 10 µM
CCc1cc(C(=O)Nc2ccc(C)cc2Br)cs1 12.6 µM
O=C(COC(=O)/C=C/c1ccco1)NCc1ccc(Cl)cc1 10 µM
Cc1ccc(Cc2c(-c3ccc(F)cc3)nc3c(C)cc(Br)cn23)cc1 22.4 µM
Cc1ccccc1CS(=O)(=O)c1ncc(Cl)c(C(=O)Nc2ccc(F)cc2)n1 11.2 µM

Growth rescue (activation), inconclusive:
O=C(N/N=C/c1ccccn1)c1sc2ccccc2c1Cl -60.1% [activator]
O=c1c(N2CCN(c3cccc(C(F)(F)F)c3)CC2)csc2ccc(Cl)cc12 -93% [activator]
CCN(CC)C1CC(=O)N(c2ccc(Br)cc2)C1=O (stereo not given) -92.7% [activator]
